In PubChem BioAssay AID686970 (National Center for Advancing Translational Sciences (NCATS), 2013):
Screen size: about 360,000 compounds; about 6,000 (1.7%) were called active. The inconclusive results got no clear call from the source; some entries with a clear call stand among them for comparison. Calls follow the shape of the dose curve; as a rule, active = well fitted cell-killing curve with a large enough effect; inconclusive = small, poorly fitted or top-dose-only effect, or effect the other way; inactive = flat fitted curve, though single readings scatter. Potencies of inconclusive entries are left out as doubtful fits.

assay: qHTS for induction of synthetic lethality in tumor cells producing 2HG: qHTS for the HT-1080-NT fibrosarcoma cell line; settings: HT-1080-NT fibrosarcoma viability, CellTiter-Glo ATP luminescence, 48 h; activity, negative = less viability: at 46.1 µM (top of the series) unless noted;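 also: NT is the 2HG producing partner of a matched IDH1 knockdown line; nearly all actives have a fitted effect of over 55% in size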;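 as to activity, negative = less viability: 0% = DMSO-treated cells and -100% = media-only wells without cells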
Summary of the method: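 Viability by CellTiter-Glo luminescence after 48 h compound exposure at 37C of HT-1080-NT cells (750/well, RPMI, 5% FBS). % activity scaled between DMSO wells and medium-only wells, then curve-fitted and categorized by curve class.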
Potency is read from the fitted curve at half-maximal effect; tags tell the direction and shape of the fitted curve.

SMILES | activity, negative = less viability | Potency
CN1C(=O)C2(NCCc3c2[nH]c2ccccc32)c2ccccc21 (stereo unspecified) | inactive: -11.8% | 
CSc1ccc(-c2cc(=O)c3ccccc3o2)cc1 |  | inconclusive [cytotoxic, single point]
COc1cc2[nH]c(=O)n3nc(-c4ccccc4)nc3c2cc1OC | inactive: 0.94% | 
Cc1cc(CN2CCN(CC(=O)Nc3cc(C(F)(F)F)ccc3-n3cncn3)CC2)no1 | inactive: -0.232% | 
COc1ccc(CC2=CC(=O)c3ccccc3C2=O)cc1 |  | inconclusive [cytotoxic, single point]
O=c1[nH]c(=O)n([C@H]2C[C@H](O)[C@@H](CO)O2)cc1Br |  | inconclusive [rising, full curve, poor fit]
CCCCCCCCN1C(=O)[C@H](CC(=O)NCc2cccc(C(F)(F)F)c2)C[C@@]2(C(=O)OCC)CCC=C12 |  | inconclusive [cytotoxic, single point]
Cc1ccnc(NC(c2ccsc2)c2ccc3ccc(C)nc3c2O)c1 (stereo unspecified) |  | inconclusive [cytotoxic, partial curve]
COc1cccc(C2CC(c3c(-c4ccccc4)c4cc(Cl)ccc4[nH]c3=O)=NN2S(C)(=O)=O)c1OC (stereo unspecified) |  | inconclusive [cytotoxic, single point]
CC1(C)Cc2nc3sc4c(SCC(=O)NCc5ccco5)ncnc4c3cc2CO1 |  | inconclusive [cytotoxic, full curve]
O=C(CSc1nc2ccccc2c2c1CCCC2)N1CCOCC1 |  | inconclusive [cytotoxic, partial curve]
Cc1cccc(C2c3c(n(C)c(=O)n(C)c3=O)N=C3c4ccccc4C(=O)C32)c1 (stereo unspecified) |  | inconclusive [cytotoxic, single point]
C/C=C/c1cccc(-c2nc(C(=O)NC3Cc4ccccc4C3)cc3c2[C@@H](CCO)N(C(C)=O)C3)c1 |  | inconclusive [cytotoxic, single point]
CC(C)CNC(=O)C1(C)CCCN1C(=O)c1ccncc1 (stereo unspecified) |  | inconclusive [rising, partial curve, poor fit]
CCCCCC(=O)Nc1ccc(C(=O)N/N=C/c2ccc([N+](=O)[O-])cc2)cc1 |  | inconclusive [cytotoxic, single point]
COc1ccc(NC(=O)c2cc(-c3ccco3)nc3ccccc23)cc1 |  | inconclusive [cytotoxic, single point]
Cc1cccc(NC(=O)c2cc(-c3ccccn3)nc3ccccc23)c1C |  | inconclusive [cytotoxic, single point]
S=C(NCCCN1CCOCC1)NN=C1c2ccccc2-c2ccccc21 | inactive: -23.5% | 
COc1ccc2c(c1)sc1nc(-c3ccccc3)cn12 |  | active: 2.59 µM
c1cncc(-c2nc(NCc3ccc4c(c3)OCO4)c3ccccc3n2)c1 | inactive: 0.722% | 
O=C(Nc1ccc([N+](=O)[O-])cc1)C1CC1(c1ccccc1)c1ccccc1 (stereo unspecified) |  | inconclusive [cytotoxic, single point]
COc1ccc(C2SCC(=O)N2c2ccc(OC)cc2)cc1 (stereo unspecified) | inactive: -1.73% | 
COc1ccc(-c2c(-c3ccc(O)cc3O)n[nH]c2C(F)(F)F)cc1 |  | inconclusive [cytotoxic, single point]
O=C1CCc2cc(S(=O)(=O)N3CCCCC3)cc3c2N1CCC3 | inactive: 14.5% | 

SMILES | activity, negative = less viability | Potency
CCN1CCN(c2nc(Nc3cccc(C)c3)nc(N)c2[N+](=O)[O-])CC1 | inactive: -14.9% | 
CC(=O)NC(c1ccccc1)c1nc(-c2ccc(C)c(C)c2)cs1 (stereo unspecified) |  | inconclusive [cytotoxic, single point]
COc1ccc(CN2C(=O)C(CC(=O)NCc3cccc4ccccc34)CC(C(=O)N(C(C)C)C(C)C)=C2C)cc1 (stereo unspecified) |  | inconclusive [cytotoxic, single point]
Cc1ccc(NC(=O)CSCc2cc(=O)n3ccsc3n2)c(C)c1 | inactive: -2.34% | 
CCCCNC(=O)c1cn(C)c2ccc(S(=O)(=O)N3CCCC3)cc2c1=O | inactive: 1.25% | 
CC(=O)c1ccc(-n2c(=O)[nH]c(=O)c3c(N)c(C(=O)c4ccc(Cl)cc4)sc32)cc1 |  | active: 20.6 µM
CCCc1cc(=O)n2[nH]cc(-c3ccc(Cl)cc3)c2n1 |  | inconclusive [cytotoxic, partial curve]
N#CC1=C(Nc2ccccc2Cl)SC2(CCCC2)NC1=O | inactive: 1.73% | 
O=C(CN1C(=O)NC2NC(=O)NC21)N/N=C/c1ccccc1O (stereo unspecified) | inactive: 0.715% | 
CC(=O)c1ccc(N2CCN(C(=O)c3cccs3)C(C)C2)c(F)c1 (stereo unspecified) | inactive: 5.11% | 
CCCn1c(C2CCCN2c2nc(-c3ccc(C)cc3)cs2)nc2ccccc21 (stereo unspecified) |  | inconclusive [cytotoxic, single point]
COc1ccc(S(=O)(=O)N(C)CC(=O)N2CCN(C)CC2)cc1Cl |  | inconclusive [rising, single point]
O=C(/C=C/c1cccc([N+](=O)[O-])c1)N1CCN(c2ccccn2)CC1 | inactive: 18.8% | 
C[C@H](CO)N1C[C@H](C)[C@@H](CN(C)C(=O)Nc2ccc3c(c2)OCO3)Oc2c(NC(=O)Nc3ccc(C(F)(F)F)cc3)cccc2C1=O |  | inconclusive [cytotoxic, single point]
Cc1cc(OCCCN2CCC(C(O)(c3ccccc3)c3ccccc3)CC2)ccc1Br |  | active: 16.4 µM
C/C(=N\NC(=O)c1c(Br)c(C)nn1C)c1ccc(NC(=O)C(C)Oc2ccc(Cl)cc2C)cc1 (stereo unspecified) |  | inconclusive [cytotoxic, partial curve]
COc1ccccc1C(=O)Nc1ccc2c(c1)nc(CCNC(=O)c1ccccc1)n2C |  | active: 4.11 µM
COc1ccc(CC(=O)NC2CC2)cc1OC | inactive: 0.514% | 
CN(c1ccccc1)c1ccc(/C=C/[N+](=O)[O-])cc1 |  | active: 5.17 µM
Cc1ccc(C(=O)CSc2nnc(-c3ccco3)n2Cc2ccccc2)cc1 |  | inconclusive [cytotoxic, single point]
CC(=O)Nc1ccc(Sc2ncccc2C(=O)Nc2ccc(F)cc2)cn1 |  | inconclusive [cytotoxic, single point]
CC12CC(c3ccccc3O1)N(C(=O)c1ccco1)C(=S)N2c1ccc(F)cc1 (stereo unspecified) |  | inconclusive [cytotoxic, single point]
CN(C(=O)c1ccncc1)C1CCCCC1 | inactive: 8.14% | 
COC(=O)c1cn(NC(=O)c2cc([N+](=O)[O-])ccc2F)c(=O)c2ccccc12 |  | inconclusive [cytotoxic, partial curve]

SMILES | activity, negative = less viability | Potency
O=C(NCC1CC1)c1cc2c(c(-c3cccc(-c4ccccc4F)c3)n1)[C@H](CCO)N(C(=O)CC1CC1)C2 |  | active: 23.1 µM
COc1ccc(/C=N\NC(=O)c2ccccc2Br)cc1COc1ccccc1 |  | inconclusive [cytotoxic, partial curve]
CC1CCCN(CCCNC(=O)c2cc3c(Cl)nc4ccccc4c3s2)C1 (stereo unspecified) |  | inconclusive [cytotoxic, single point]
NCCNC[C@@H]1COC2(CCCCCCCCCCC2)O1 |  | active: 14.6 µM
CSc1nc2cc(Oc3cccc(Cl)c3Cl)c(Cl)cc2[nH]1 |  | active: 9.2 µM
CCCCc1c(C)nc2cc(-c3ccco3)[nH]n2c1=O | inactive: -0.545% | 
CCOC(=O)c1ccc(NC(=S)NCCc2ccc(F)cc2)cc1 |  | inconclusive [cytotoxic, single point]
Cc1cc(/C=N/n2cnnc2)c(C)n1-c1ccc(OCc2ccccc2F)cc1 |  | inconclusive [cytotoxic, single point]
Nc1nc(Sc2ccc([N+](=O)[O-])c3nonc23)c2[nH]cnc2n1 |  | active: 4.61 µM
COCC(C)NC(=O)CSc1nc(-c2ccccc2)c(-c2ccccc2)o1 (stereo unspecified) | inactive: -0.253% | 
CS(=O)(=O)Nc1cccc(NC(=O)c2cccc3c(-c4ccc(F)c(F)c4)coc23)c1 |  | inconclusive [cytotoxic, single point]
O=C(COc1ccccc1[N+](=O)[O-])Nc1cccnc1 |  | inconclusive [rising, partial curve]
O=C1OCC2=C1C(c1ccc(F)cc1)Sc1ccccc1N2 (stereo unspecified) |  | inconclusive [cytotoxic, single point]
Cc1nc(SCC(=O)NCc2ccccc2)c2c(=O)n(C)c(=O)n(C)c2n1 |  | inconclusive [rising, single point]
CCOC1=C2[C@@H](CN(S(=O)(=O)c3ccc(C)cc3)[C@H]2c2cccc3ccccc23)[C@H]2C(=O)N(C3CCCCC3)C(=O)[C@H]2C1 | inactive: 8.11% | 
COCc1ccc(O)c2ncccc12 |  | active: 4.61 µM
COc1ccc(S(=O)(=O)Nc2ccccc2C)cc1 |  | inconclusive [cytotoxic, partial curve]
CCOC(=O)C1=CCN(S(=O)(=O)c2ccccc2C)C1c1cccc(Cl)c1 (stereo unspecified) | inactive: -17.7% | 
CCOC(=O)c1sc(NC(=O)CC)c(C#N)c1C | inactive: 21.7% | 
COc1ccc(OC)c(NC(=O)CCNC(=O)c2ccco2)c1 |  | inconclusive [rising, single point]
Cc1cc2c(c(=O)n1CCc1ccccc1)C(c1ccco1)C(C#N)=C(N)O2 (stereo unspecified) |  | inconclusive [cytotoxic, single point]
CCCCOc1ccc(CSCCN=C(N)N)cc1 |  | inconclusive [cytotoxic, partial curve, poor fit]
CN(C(=O)CC1C(=O)NCCN1CC1CCCCC1)C1CCOCC1 (stereo unspecified) |  | inconclusive [rising, single point]
